# Measurements as given in the supplement of paper PMC3334620.
# In all, about 33,000 sequences were measured (“E-score (-0.5 to 0.5)”: median about -0.054, highest 2% from about 0.35 on). The list shows a part of the results.
# Target: T1, Stb5 (UniProt P38699)
# T1 sequence: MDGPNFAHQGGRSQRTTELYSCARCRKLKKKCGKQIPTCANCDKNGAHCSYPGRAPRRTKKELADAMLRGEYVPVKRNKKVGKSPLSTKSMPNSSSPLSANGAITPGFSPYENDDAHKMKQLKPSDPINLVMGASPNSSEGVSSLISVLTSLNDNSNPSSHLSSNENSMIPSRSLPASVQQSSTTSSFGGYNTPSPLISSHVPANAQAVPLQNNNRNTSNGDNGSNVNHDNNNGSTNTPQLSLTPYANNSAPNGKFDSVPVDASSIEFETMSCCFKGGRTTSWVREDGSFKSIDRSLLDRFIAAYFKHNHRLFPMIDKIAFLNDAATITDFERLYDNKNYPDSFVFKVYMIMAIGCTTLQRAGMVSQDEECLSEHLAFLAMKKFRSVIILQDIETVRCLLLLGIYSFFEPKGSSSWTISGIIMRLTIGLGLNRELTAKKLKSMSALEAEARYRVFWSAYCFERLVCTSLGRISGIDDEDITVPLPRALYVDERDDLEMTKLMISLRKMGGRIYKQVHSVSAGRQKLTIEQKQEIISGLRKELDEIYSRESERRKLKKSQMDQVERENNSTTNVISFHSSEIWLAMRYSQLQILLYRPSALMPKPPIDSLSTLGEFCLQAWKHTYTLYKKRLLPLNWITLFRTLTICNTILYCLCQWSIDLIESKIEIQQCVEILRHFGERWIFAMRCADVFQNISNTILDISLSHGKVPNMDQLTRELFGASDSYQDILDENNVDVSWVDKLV
# Test: PBM E-score (8-mer binding enrichment) (E-score (-0.5 to 0.5)); higher = stronger / more preferred TF binding; most listed sequences are background and not binding sites
# Conditions: protein concentration: 200 nM; construct: GST-full length
# Description: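 Universal 'all 10-mer' protein binding microarrays (Agilent AMADID 015681) probed with GST-tagged S. cerevisiae TFs (full-length or DBD) made by in vitro transcription/translation (PURExpress), about 100-200 nM. Bound TF was detected with fluorescent anti-GST. Each ungapped 8-mer (which stands for itself and its reverse complement) is scored by the PBM enrichment score (E-score), a modified Wilcoxon-Mann-Whitney statistic from -0.5 to +0.5, computed with the Universal PBM Analysis Suite. Scale: above 0.35 generally sequence-specific binding.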
row,Sequence,PBM E-score
1,CTTCTATA,-0.0427
2,GCGCAGGA,-0.0349
3,GGGTTCTA,0.162
4,AAAGCTTG,-0.303
5,AGTGAGGA,-0.15
6,AAAAGCCC,0.324
7,CGAGGATA,-0.0273
8,AAGCCTAT,-0.128
9,GAAGCGAC,-0.185
10,ATCGTGGA,-0.114
11,GCCTCAAA,0.0102
12,AACCAAGG,-0.0901
13,AAAGGCGT,-0.0876
14,CTATGCCA,-0.262
15,GCTAAACA,-0.207
16,CTGCAGGC,-0.0955
17,CAACCACG,-0.127
18,GGTTATAA,0.302
19,ATGCGCAA,-0.138
20,ATTATCCC,0.0778
21,ACCAGCTA,-0.247
22,ACTGCCCA,-0.228
23,CGTGAAAG,-0.0126
24,CCATAGGG,-0.169
25,CTAAGTGC,0.121

row,Sequence,PBM E-score
1,TGCAAGCA,-0.218
2,CGTCATTC,0.0466
3,AGTCGTCG,-0.072
4,AGATGATC,-0.0845
5,GTCTGCGA,-0.247
6,CATGCCTC,0.00542
7,AGCCTTCG,-0.226
8,CATGCTCA,-0.159
9,CTAGCGGC,0.298
10,GTAGCTAA,-0.0293
11,CAGGCAGA,-0.19
12,AGAGGGTG,-0.177
13,GCCGCGTA,0.209
14,AACTGGTC,0.023
15,AGTAGGCC,-0.12
16,CTGAGCAA,-0.228
17,CCTTGCAC,-0.0796
18,GAGCGTAC,0.00703
19,AGCGATTA,0.0498
20,ATTGCCAC,-0.127
21,GAACGTTC,-0.114
22,AGCCGAAG,-0.0341
23,CAGGACCA,-0.183
24,ATCCATGA,-0.25
25,CCGTGGCC,0.149

row,Sequence,PBM E-score
1,CTGAAAAG,-0.129
2,GCCGAGGC,0.143
3,ATTTGGGC,-0.144
4,CGTAGTTC,-0.06
5,GGTTAAAC,0.145
6,AGCGAGAT,-0.00166
7,CGAGCACG,0.115
8,GCAAACCA,-0.0507
9,CTTAAGGC,0.149
10,ATCGCTTC,-0.113
11,ACCCCGGT,0.356
12,CCTACAGA,-0.203
13,ATCCTAGG,-0.0987
14,AATGGGGT,0.0437
15,CTGGAGCC,0.0227
16,AGGCTCCC,-0.187
17,CAGATCTC,-0.126
18,ATTTAGGC,0.00693
19,ACCAAAAA,0.0809
20,AGCACACC,-0.0624
21,AACCAAAC,0.00959
22,GAGTGAAA,-0.212
23,GACGTCTC,-0.262
24,ATCGTGCC,0.12
25,TCCAACCA,-0.185

row,Sequence,PBM E-score
1,ATCTAGGG,-0.337
2,CGACGAAC,0.148
3,ACTTTCTG,0.00797
4,CGCTTATA,0.25
5,CGTCTTTC,0.00627
6,CTGTGTCA,-0.0243
7,AGATGCCC,-0.144
8,AAGCAAAG,-0.143
9,GCAGTAGA,-0.2
10,CGCGATCA,0.0825
11,CCTATTAC,-0.139
12,GCGAATGA,-0.0618
13,ACGTTTCT,-0.0761
14,AATCCAAC,-0.117
15,CTCTCCAC,-0.251
16,CACCTCTG,-0.263
17,ACGACCCT,-0.0137
18,AGGTGGTA,0.165
19,ACTACCGC,0.329
20,CAACCTGC,-0.00614
21,ACCGCGGC,0.412
22,CCCTTCGG,0.134
23,AAGGCTCG,-0.161
24,TGCCTCAA,-0.0793
25,AGACTCCC,-0.154

row,Sequence,PBM E-score
1,CACTCCAC,-0.333
2,AGACTCCT,-0.241
3,TCACGAAA,-0.0621
4,ATCTAGGC,-0.142
5,CGCCGGCC,0.391
6,ACGCTTCG,-0.185
7,GTCCGCCA,0.4
8,TTGCTAAA,-0.0669
9,AATGCTTG,-0.244
10,GCAGATGC,-0.149
11,GGCCACAC,0.0949
12,TCGTTGCA,-0.243
13,TAACAAAA,0.0358
14,CACAGGCG,0.131
15,AAGCCAAT,0.0459
16,ACATTGTA,-0.238
17,GCTCGCCA,0.00411
18,CATTTCAG,-0.195
19,GCCGCAGA,0.201
20,ACTGGTAA,0.0787
21,GCTCCCAA,-0.287
22,AGCAGTTG,-0.181
23,AAACGTGA,-0.285
24,AACACACG,-0.167
25,CATACACC,0.204

row,Sequence,PBM E-score
1,AGGCTGCC,-0.211
2,TATGTTCA,-0.108
3,AACGTTGA,-0.0296
4,TGCACCAA,-0.409
5,CAAGGGTA,-0.229
6,CGATTGTA,0.162
7,ATTGCCTC,-0.196
8,CGGGCGTC,0.198
9,CTCGATTA,-0.0987
10,GAAAACTA,-0.0062
11,ATATGGCC,0.222
12,AGCTAAAT,0.088
13,CGGAGAGC,0.00854
14,GGAAACAC,0.17
15,ACGTGGCT,-0.152
16,AGAGTTGC,0.0441
17,GCAAGGCA,-0.187
18,GAAATGCC,0.294
19,AGAAAGAC,-0.0525
20,CAGAACAG,-0.0857
21,GATTTCGA,-0.0771
22,AGCGGTGA,0.387
23,AGTAATAA,-0.124
24,ACTAAGAG,0.102
25,AGGCCGTA,0.223

row,Sequence,PBM E-score
1,CGCATGCA,0.15
2,TCCCTGCA,-0.0166
3,GACGTGCC,0.00712
4,GTTGAGAA,0.0595
5,ATTAACGG,0.217
6,ATGGCCTA,0.0294
7,AGGGGGTC,-0.342
8,GACCAATC,-0.122
9,ACTGCTCT,-0.0796
10,GTACTGCA,-0.181
11,GTGTCAGA,-0.0796
12,CCCGGGAG,0.109
13,AATAGTGC,0.217
14,CAGTACAC,-0.242
15,CATAAGTC,0.125
16,CTACATCC,-0.0483
17,CCCCAACC,-0.16
18,GGACGTCC,-0.00798
19,ATGCGACG,0.0491
20,AGTCATTC,-0.303
21,AGGAACAC,0.13
22,CTTACGAA,-0.17
